# Source: the antibiotic and cytotoxicity screens of Wong et al. (2023)
# The other results are listed elsewhere or left out.
# Tested on: HSkMC (human skeletal muscle cells)
# Assay: cytotoxicity call (relative viability < 0.9)
# Conditions: 10 µM
row,SMILES,cytotoxicity call
1,C[C@H]1CCCCO[C@H](CN(C)C)[C@@H](C)CN([C@@H](C)CO)C(=O)c2cc(NC(=O)CCCCCC(=O)Nc3ccccc3N)ccc2O1,inactive
2,C[C@@H]1CN([C@@H](C)CO)C(=O)Cc2cc(NC(=O)CCN3CCOCC3)ccc2O[C@H]1CN(C)Cc1ccc2c(c1)OCO2,inactive
3,O=C(C[C@H]1CC[C@H]2[C@@H](COC[C@H](O)CN2C(=O)C2CC2)O1)NCc1ccncc1,inactive
4,C[C@@H]1O[C@@H](O[C@H]2[C@H](O)[C@@H](O)[C@H](OC[C@H]3O[C@@H](OC(=O)[C@]45CCC(C)(C)C[C@@H]4C4=CC[C@H]6[C@@]7(C)CC[C@H](O[C@H]8OC[C@H](O)[C@H](O)[C@H]8O[C@H]8O[C@@H](C)[C@H](O)[C@@H](O)[C@H]8O)[C@@](C)(CO)[C@@H]7CC[C@@]6(C)[C@]4(C)CC5)[C@H](O)[C@@H](O)[C@@H]3O)O[C@@H]2CO)[C@H](O)[C@H](O)[C@H]1O,inactive
5,COc1ccc(S(=O)(=O)Nc2ccc3c(c2)CC(=O)N([C@H](C)CO)C[C@H](C)[C@H](CN(C)C)O3)cc1,inactive
6,C[C@@H]1CN([C@@H](C)CO)C(=O)c2cc(Br)cnc2O[C@H]1CN(C)C(=O)c1ccc2c(c1)OCO2,inactive
